# US20250214977A1, “STAT6 INHIBITORS AND USES THEREOF” (Kymera Therapeutics, Inc., priority 2024, published 2025)
# Molecular target: T1, biotinylated truncated STAT6 (123-632)-avi (Homo sapiens, UniProt P42226)
# T1 sequence (P42226 123-632 limits assumed): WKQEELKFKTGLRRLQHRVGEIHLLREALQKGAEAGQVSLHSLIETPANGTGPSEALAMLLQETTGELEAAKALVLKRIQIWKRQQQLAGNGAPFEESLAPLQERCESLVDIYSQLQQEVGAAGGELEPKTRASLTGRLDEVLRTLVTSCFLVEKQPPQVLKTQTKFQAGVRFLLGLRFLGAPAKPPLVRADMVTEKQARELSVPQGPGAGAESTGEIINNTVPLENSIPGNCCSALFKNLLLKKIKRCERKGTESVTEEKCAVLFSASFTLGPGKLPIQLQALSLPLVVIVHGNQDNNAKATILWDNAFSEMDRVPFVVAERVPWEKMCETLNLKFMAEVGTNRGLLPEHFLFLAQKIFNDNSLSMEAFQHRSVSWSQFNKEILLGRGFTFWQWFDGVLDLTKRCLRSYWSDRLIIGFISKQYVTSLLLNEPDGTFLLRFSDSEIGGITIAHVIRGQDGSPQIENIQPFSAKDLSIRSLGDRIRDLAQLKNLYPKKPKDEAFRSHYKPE
# Assay: Homogenous Time-Resolved Fluorescence (HTRF) binding assay
# Settings: 0.15 nM biotinylated truncated STAT6 (123-632)-avi, 20 nM fluorescein-labeled probe, 30 minutes at room temperature
row,SMILES,IC50
1,COc1ccccc1-c1cc(C2=CCCN(C(=O)CCn3ccnn3)C2)c(F)c2[nH]c(C(=O)N3CCN(c4ncc(N(C)C)cc4OC)CC3)cc12 [Example I-416],< 100 nM
2,COc1ccccc1-c1cc(C2=CCCN(C(=O)CCn3ccnn3)C2)c(F)c2[nH]c(C(=O)N3Cc4cn(-c5ncccc5OC)cc4C3)cc12 [Example I-417],< 100 nM
3,COc1ccccc1-c1cc(C2=CCCN(C(=O)CCn3ccnn3)C2)c(F)c2[nH]c(C(=O)N3CCN(c4ccccc4F)CC3)cc12 [Example I-418],< 100 nM
4,COc1ccccc1-c1cc(C2=CCCN(C(=O)CCn3ccnn3)C2)c(F)c2[nH]c(C(=O)N3CCN(c4ccccc4)CC3)cc12 [Example I-419],< 100 nM
5,COc1ccccc1-c1cc(C2=CCCN(C(=O)CCn3ccnn3)C2)c(F)c2[nH]c(C(=O)N3CCN(c4ccccc4OC(F)(F)F)CC3)cc12 [Example I-420],100 to 1000 nM
6,COc1ccccc1-c1cc(C2=CCCN(C(=O)CCn3ccnn3)C2)c(F)c2[nH]c(C(=O)N3CCN(c4ccccc4C)CC3)cc12 [Example I-421],< 100 nM
7,COc1ccccc1-c1cc(C2=CCCN(C(=O)CCn3ccnn3)C2)c(F)c2[nH]c(C(=O)N3CCC(c4ccccc4OC)CC3)cc12 [Example I-422],< 100 nM
8,COc1ccccc1-c1cc(C2=CCCN(C(=O)CCn3ccnn3)C2)c(F)c2[nH]c(C(=O)N3CCN(c4ccccc4Cl)CC3)cc12 [Example I-423],< 100 nM
9,COc1ccccc1-c1cc(C2=CCCN(C(=O)CCn3ccnn3)C2)c(F)c2[nH]c(C(=O)N3CCN(c4c(F)cccc4OC4CC4)CC3)cc12 [Example I-424],< 100 nM
10,COc1ccccc1N1CCN(C(=O)c2cc3c(-c4cnccc4OC(F)F)cc(C4=CCCN(C(=O)CCn5ccnn5)C4)c(F)c3[nH]2)CC1 [Example I-426],< 100 nM
11,COc1ccccc1-c1cc(C2=CCCN(C(=O)CCn3ccnn3)C2)c(F)c2[nH]c(C(=O)N3CCN(c4cccc(OC(F)F)c4)CC3)cc12 [Example I-427],< 100 nM
12,COc1ccncc1-c1cc(C2=CCCN(C(=O)CCn3ccnn3)C2)c(F)c2[nH]c(C(=O)N3CCN(c4ncc(F)cc4OC)CC3)cc12 [Example I-428],< 100 nM
13,COc1ccncc1-c1cc(C2=CCCN(C(=O)CCn3ccnn3)C2)c(F)c2[nH]c(C(=O)N3CCN(c4ncncc4OC)CC3)cc12 [Example I-429],< 100 nM
14,COc1ccccc1-c1cc(C2=CCCN(C(=O)CCn3ccnn3)C2)c(F)c2[nH]c(C(=O)N3CCN(c4cccc(OC(F)(F)F)n4)CC3)cc12 [Example I-430],100 to 1000 nM
15,COc1ccccc1-c1cc(C2=CCCN(C(=O)CCn3ccnn3)C2)c(F)c2[nH]c(C(=O)N3CCN(c4ccc(F)cc4OC)CC3)cc12 [Example I-431],< 100 nM
16,COc1ccccc1-c1cc(C2=CCCN(C(=O)CCn3ccnn3)C2)c(F)c2[nH]c(C(=O)N3CCN(c4c(F)cc(F)cc4OC)CC3)cc12 [Example I-432],< 100 nM
17,COc1ccncc1-c1cc(C2=CCCN(C(=O)CCn3ccnn3)C2)c(F)c2[nH]c(C(=O)N3CCN(c4nc(C)ccc4OC)CC3)cc12 [Example I-433],> 100000 nM
18,COc1ccncc1-c1cc(C2=CCCN(C(=O)CCn3ccnn3)C2)c(F)c2[nH]c(C(=O)N3CC=C(c4ccc(F)c(OC)n4)CC3)cc12 [Example I-434],< 100 nM
19,COc1cnccc1-c1cc(C2=CCCN(C(=O)CCn3ccnn3)C2)c(F)c2[nH]c(C(=O)N3CCN(c4ncc(C(F)(F)F)cc4OC)CC3)cc12 [Example I-435],< 100 nM
20,COc1cnc(N2CCN(C(=O)c3cc4c(-c5ccncc5OC)cc(C5=CCCN(C(=O)CCn6ccnn6)C5)c(F)c4[nH]3)CC2)c(OC)c1 [Example I-436],< 100 nM
21,COc1cnc(N2CCN(C(=O)c3cc4c(-c5cnccc5OC)cc(C5=CCCN(C(=O)CCn6ccnn6)C5)c(F)c4[nH]3)CC2)c(OC)c1 [Example I-437],< 100 nM
22,COc1ccncc1-c1cc(C2=CCCN(C(=O)CCn3ccnn3)C2)c(F)c2[nH]c(C(=O)N3CCN(c4ncc(C5CC5)cc4OC)CC3)cc12 [Example I-438],< 100 nM
23,CNc1cccnc1N1CCN(C(=O)c2cc3c(-c4ccccc4OC)cc(C4=CCCN(C(=O)CCn5ccnn5)C4)c(F)c3[nH]2)CC1 [Example I-439],< 100 nM
24,COc1cccc(N2CCN(C(=O)c3cc4c(-c5cnccc5OC)cc(C5=CCCN(C(=O)CCn6ccnn6)C5)c(F)c4[nH]3)CC2)n1 [Example I-440],< 100 nM
25,COc1ccncc1-c1cc(C2=CCCN(C(=O)CCn3ccnn3)C2)c(F)c2[nH]c(C(=O)N3CCN(c4nccnc4OC)CC3)cc12 [Example I-441],< 100 nM
26,COc1ccncc1-c1cc(C2=CCCN(C(=O)CCn3ccnn3)C2)c(F)c2[nH]c(C(=O)N3CC=C(c4ncc(F)cc4OC)CC3)cc12 [Example I-442],< 100 nM

row,SMILES,IC50
1,COc1ccncc1-c1cc(C2=CCCN(C(=O)CCn3ccnn3)C2)c(F)c2[nH]c(C(=O)N3CCN(c4ccc(F)c(OC)n4)CC3)cc12 [Example I-444],< 100 nM
2,COc1ccncc1-c1cc(C2=CCCN(C(=O)CCn3ccnn3)C2)c(F)c2[nH]c(C(=O)N3CCN(c4ncc(C(F)(F)F)cc4OC)CC3)cc12 [Example I-445],< 100 nM
3,COc1cc(C(F)(F)F)cnc1N1CCN(C(=O)c2cc3c(-c4cnc5ccccc5c4OC)cc(C4=CCCN(C(=O)CCn5ccnn5)C4)c(F)c3[nH]2)CC1 [Example I-446],1000 to 10000 nM
4,COc1c(-c2cc(C3=CCCN(C(=O)CCn4ccnn4)C3)c(F)c3[nH]c(C(=O)N4CCN(c5ncccc5OC5CC5)CC4)cc23)cnc2ccccc12 [Example I-447],< 100 nM
5,COc1ccccc1N1CCN(C(=O)c2cc3c(-c4cnc5ccccc5c4OC)cc(C4=CCCN(C(=O)CCn5ccnn5)C4)c(F)c3[nH]2)CC1 [Example I-448],< 100 nM
6,COc1c(-c2cc(C3=CCCN(C(=O)CCn4ccnn4)C3)c(F)c3[nH]c(C(=O)N4CCN(C5CC5)CC4)cc23)cnc2ccccc12 [Example I-449],< 100 nM
7,COc1ccncc1-c1cc(C2=CCCN(C(=O)CCn3ccnn3)C2)c(F)c2[nH]c(C(=O)N3CCN(c4ccc(Cl)cc4OC)CC3)cc12 [Example I-450],< 100 nM
8,COc1cccnc1C1=CCN(C(=O)c2cc3c(-c4cnc5ccccc5c4OC)cc(C4=CCCN(C(=O)CCn5ccnn5)C4)c(F)c3[nH]2)CC1 [Example I-451],< 100 nM
9,COc1ccncc1-c1cc(C2=CCCN(C(=O)CCn3ccnn3)C2)c(F)c2[nH]c(C(=O)N3CC=C(c4ncccc4OC)CC3)cc12 [Example I-452],> 100000 nM
10,CCc1cnc(N2CCN(C(=O)c3cc4c(-c5cnccc5OC)cc(C5=CCCN(C(=O)CCn6ccnn6)C5)c(F)c4[nH]3)CC2)c(OC)c1 [Example I-453],< 100 nM
11,COc1ccncc1-c1cc(C2=CCCN(C(=O)CCn3ccnn3)C2)c(F)c2[nH]c(C(=O)N3CCN(c4ncc(C(C)C)cc4OC)CC3)cc12 [Example I-454],< 100 nM
12,COc1ccncc1-c1cc(C2=CCCN(C(=O)CCn3ccnn3)C2)c(F)c2[nH]c(C(=O)N3CCN(c4ncccc4OC4CC4)CC3)cc12 [Example I-456],< 100 nM
13,COc1cnccc1-c1cc(C2=CCCN(C(=O)CCn3ccnn3)C2)c(F)c2[nH]c(C(=O)N3CCN(c4ncc(Cl)cc4OC)CC3)cc12 [Example I-457],< 100 nM
14,COc1ccncc1-c1cc(C2=CCCN(C(=O)CCn3ccnn3)C2)c(F)c2[nH]c(C(=O)N3CCN(c4ncc(Cl)cc4OC)CC3)cc12 [Example I-458],< 100 nM
15,COc1cc(F)ccc1-c1cc(C2=CCCN(C(=O)CCn3ccnn3)C2)c(F)c2[nH]c(C(=O)N3CCN(c4ncc(Cl)cc4OC)CC3)cc12 [Example I-459],< 100 nM
16,COc1cc(Cl)cnc1N1CCN(C(=O)c2cc3c(-c4cccnc4OC)cc(C4=CCCN(C(=O)CCn5ccnn5)C4)c(F)c3[nH]2)CC1 [Example I-460],< 100 nM
17,COc1cc(Cl)cnc1N1CCN(C(=O)c2cc3c(-c4cc(F)cc(F)c4OC)cc(C4=CCCN(C(=O)CCn5ccnn5)C4)c(F)c3[nH]2)CC1 [Example I-462],100 to 1000 nM
18,COc1ccncc1-c1cc(C2=CCCN(C(=O)CCn3ccnn3)C2)c(F)c2[nH]c(C(=O)N3CCN(c4ccc(C(F)(F)F)cc4OC)CC3)cc12 [Example I-463],< 100 nM
19,COc1ccccc1-c1cc(C2=CCCN(C(=O)CCn3ccnn3)C2)c(F)c2[nH]c(C(=O)N3Cc4cnn(C)c4C3)cc12 [Example I-464],< 100 nM
20,COc1ccccc1-c1cc(C2=CCCN(C(=O)CCn3ccnn3)C2)c(F)c2[nH]c(C(=O)N3CCN(c4cnccc4OC)CC3)cc12 [Example I-465],> 100000 nM
21,CCc1ccc(OC)c(N2CCN(C(=O)c3cc4c(-c5cnccc5OC)cc(C5=CCCN(C(=O)CCn6ccnn6)C5)c(F)c4[nH]3)CC2)n1 [Example I-466],< 100 nM
22,COc1cc(F)cnc1N1CCN(C(=O)c2cc3c(-c4cnc5ccccc5c4OC)cc(C4=CCCN(C(=O)CCn5ccnn5)C4)c(F)c3[nH]2)CC1 [Example I-468],< 100 nM
23,COc1nc(N2CCN(C(=O)c3cc4c(-c5cnc6ccccc6c5OC)cc(C5=CCCN(C(=O)CCn6ccnn6)C5)c(F)c4[nH]3)CC2)ccc1F [Example I-469],100 to 1000 nM
24,CCOc1ccncc1-c1cc(C2=CCCN(C(=O)CCn3ccnn3)C2)c(F)c2[nH]c(C(=O)N3CCN(c4cncnc4OC)CC3)cc12 [Example I-470],< 100 nM
25,CCc1ccncc1-c1cc(C2=CCCN(C(=O)CCn3ccnn3)C2)c(F)c2[nH]c(C(=O)N3CCN(c4ccccc4OC)CC3)cc12 [Example I-471],< 100 nM
